The full ranking holds about 33,000 sequences; the median of “E-score (-0.5 to 0.5)” is about -0.016, and the highest 2% start at about 0.32. This is one part of the list.

94 sequences from the supplement of paper PMC3334620 can be followed below.

The target in this experiment is T1, Stp1 (UniProt B3LFK1).
T1 sequence: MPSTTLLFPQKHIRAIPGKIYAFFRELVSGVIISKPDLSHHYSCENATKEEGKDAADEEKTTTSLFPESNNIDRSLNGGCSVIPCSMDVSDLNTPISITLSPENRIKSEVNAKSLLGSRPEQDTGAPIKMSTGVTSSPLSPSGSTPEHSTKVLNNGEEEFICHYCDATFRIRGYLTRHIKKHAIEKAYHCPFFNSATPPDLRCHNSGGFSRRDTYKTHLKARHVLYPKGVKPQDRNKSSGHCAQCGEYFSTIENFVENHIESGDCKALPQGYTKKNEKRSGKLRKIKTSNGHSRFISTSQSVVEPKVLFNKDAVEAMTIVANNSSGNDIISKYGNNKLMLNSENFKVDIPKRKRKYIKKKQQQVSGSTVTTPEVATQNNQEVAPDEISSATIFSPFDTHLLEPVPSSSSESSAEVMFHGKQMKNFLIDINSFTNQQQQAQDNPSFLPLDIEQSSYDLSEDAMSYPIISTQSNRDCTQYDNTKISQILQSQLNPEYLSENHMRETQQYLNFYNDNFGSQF
As to the kind of experiment: PBM E-score (8-mer binding enrichment) (E-score (-0.5 to 0.5)); higher = stronger / more preferred TF binding; most listed sequences are background and not binding sites. The note with it: protein concentration: 200 nM; construct: GST-full length. An outline of the steps:
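PURExpress in vitro transcription/translation supplied GST-tagged yeast transcription factors, either full-length or DNA-binding domain. Applied at about 100-200 nM to universal all-10-mer Agilent arrays double-stranded by primer extension, the bound protein was detected with fluorescent anti-GST. E-scores, modified Wilcoxon-Mann-Whitney statistics, were given by the Universal PBM Analysis Suite to ungapped eight-base words pooled with their reverse complements after masliner normalisation.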
Regarding GCCATCGA, the “PBM E-score” value turned out to be 0.0584. To CAAACCCG belongs 0.0896; to AGTTAGCC, 0.0147; to CTGGCCAC, -0.187. The same measure for ACCTGTCC: -0.219; for GATCTATA: 0.0822. To ACGGCCGA belongs 0.191; to CAGCGTCG, -0.0613. Take CCAGAGCC: the “PBM E-score” value turned out to be 0.138.

As for CGCTTCTC, the “PBM E-score” value was 0.0513.

On to GACTAATA, for which the “PBM E-score” value amounted to 0.0804.

For ATGTAAGG, the “PBM E-score” value was -0.00384. The same measure for ACGGATAG: 0.107; for GGAACTGA: -0.0156. To AGAATGCC belongs 0.262; to CGCTTTAG, -0.0241.

Consider GTTGTTGA, for which the “PBM E-score” value was determined as 0.0717.

As for GATTTGTA, the “PBM E-score” value amounted to 0.114. To TAGAAATA belongs 0.0228. The same measure for TGGTCGAA: -0.295; for AGTGAACA: -0.135; for GCCGGAGC: -0.0765. On to CCCATTCG, for which the “PBM E-score” value is -0.0463. The same measure for CCACTATA: -0.00593.

For the sequence GTTTCCGA, the “PBM E-score” value was 0.0394. The same measure for GCAGGACC: -0.315; for GAAATGAC: 0.0359.

For the sequence AATATGCG, the “PBM E-score” value is 0.114. To AATTTTGC belongs 0.109.

In the case of AAGCCCTG, the “PBM E-score” value amounted to 0.0325. To CCTATTAG belongs 0.0669; to CCCCATAA, -0.137. The same measure for CCATATGC: 0.101; for CGCTGGCA: 0.0475; for CAGCATCG: -0.221. To AGGGATTC belongs -0.11. Take CCGATCCC: the “PBM E-score” value is -0.224. The same measure for CGTCGTAA: -0.0276. To AATGGGTC belongs -0.287; to CACAGATC, -0.0371. To TCTTGCCA belongs 0.0862; to TCAGGGAA, -0.0569.

For AGTTTGCA, the “PBM E-score” value came out at 0.0363. To GCGCCATA belongs 0.25. Consider AAATGCAG, for which the “PBM E-score” value is -0.0331. The same measure for CACAGCTC: -0.072; for AGAGACTA: -0.0659. To CAACTTCC belongs 0.00968. The same measure for ACCTAGTG: -0.119; for AAATTCTG: 0.114; for GGCACGAC: 0.208. Take AAGATTGG: the “PBM E-score” value is -0.0975. As to ACCGACGT, the “PBM E-score” value is -0.0131. To GCACGTTA belongs 0.0836; to ATCTACTG, 0.0413; to CCGGCAAA, 0.116. On to ACACCATC, for which the “PBM E-score” value is -0.0987.

Take AGCACAAT: the “PBM E-score” value worked out at 0.172.

For GTAATAAA, the “PBM E-score” value is 0.286. The same measure for GTCAGTTA: -0.0449; for CATGTGGG: -0.144; for CACAGTGA: -0.102. To AACGGTTC belongs -0.0856; to AAAGACAA, 0.123.

On to ACCTGTTC, for which the “PBM E-score” value was -0.0857. The same measure for CATGTTTA: 0.0324; for ACCATAAT: 0.14; for CCCAGGCG: -0.177. To CTCTTCTC belongs -0.104; to ACTTGCTC, -0.146.

Regarding CATTCACA, the “PBM E-score” value came to 0.0689.

In the case of CTAAAAGC, the “PBM E-score” value turned out to be 0.0149. To CCCCCTTC belongs -0.364; to CGTTACGC, 0.112. The same measure for CAACATTC: -0.155.

For the sequence TGCCACAA, the “PBM E-score” value was 0.167.

As for AACCCATG, the “PBM E-score” value was -0.149. Take CTTTGAGA: the “PBM E-score” value stood at 0.199. The same measure for ATTCCGCA: 0.0903. The same measure for AAATGTTC: -0.121.

On to ATGGCAAG, for which the “PBM E-score” value amounted to 0.216.

Turning to AGTATCAG, the “PBM E-score” value is -0.081.

In the case of AAGAGCAT, the “PBM E-score” value was -0.0887. The same measure for ACATGGTG: 0.0222; for ACGGGACC: -0.0673.

In the case of CTCGAGGA, the “PBM E-score” value was -0.0744. The same measure for CACTTGGG: -0.0291; for ACCCGGGT: -0.249; for TAACGGAA: 0.0508. Turning to CAAAATGG, the “PBM E-score” value was 0.112. To CCCGAACG belongs 0.00944.

With AGCGCTTC, the “PBM E-score” value was -0.0737. Turning to ACCACGAC, the “PBM E-score” value is -0.178. Turning to GCTTGCGA, the “PBM E-score” value came to 0.167.
